# Assay results: the supplement of paper PMC4967469
# Compound: N.N.[Cl][Pt][Cl] [Cisplatin]
# Assay: Viability of human cancer cell lines after 72 h of drug (GDSC screen)
# Settings: top dose inferred
# Description: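 Human cancer cell lines in 384-well plates, medium with 10% serum, drug for 72 h over a 256-fold dose range (nine 2-fold or five 4-fold steps up to the top dose). Adherent lines were fixed and stained with the nucleic acid dye Syto60, suspension lines read with resazurin; signal relative to control wells, capped at 0 and 100%. One two-parameter sigmoid per drug and line, fitted in a mixed model over all curves with the slope shared within a line.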
Cell Line,AUC,IC50 [µM]
"LS-123 (large intestine, adherent, top dose 10 µM)",0.957,> 10
"LS-180 (large intestine, adherent, top dose 10 µM)",0.979,> 10
"LS-411N (large intestine, adherent, top dose 10 µM)",0.946,> 10
"LS-513 (large intestine, adherent, top dose 6 µM)",0.951,> 6
"LS-1034 (large intestine, adherent, top dose 10 µM)",0.97,> 10
"LU-65 (large cell lung carcinoma, suspension, top dose 10 µM)",0.979,> 10
"LU-134-A (small cell lung carcinoma, suspension, top dose 10 µM)",0.913,> 10
"LU-135 (small cell lung carcinoma, suspension, top dose 10 µM)",0.915,> 10
"LU-139 (small cell lung carcinoma, suspension, top dose 10 µM)",0.942,> 10
"LU-165 (small cell lung carcinoma, suspension, top dose 10 µM)",0.985,> 10
"LXF-289 (lung adenocarcinoma, adherent, top dose 10 µM)",0.898,> 10
"LoVo (large intestine, adherent, top dose 10 µM)",0.936,> 10
"M14 (melanoma, adherent, top dose 10 µM)",0.962,> 10
"M059J (glioma, adherent, top dose 10 µM)",0.861,9.71
"MC116 (B-cell lymphoma, suspension, top dose 10 µM)",0.999,> 10
"MC-CAR (haematopoietic neoplasm, suspension, top dose 10 µM)",0.935,> 10
"MC-IXC (neuroblastoma, adherent, top dose 10 µM)",0.685,1.76
"MCF7 (breast, adherent, top dose 10 µM)",0.93,> 10
"MDA-MB-175-VII (breast, adherent, top dose 10 µM)",0.937,> 10
"MDA-MB-330 (breast, adherent, top dose 10 µM)",0.983,> 10

Cell Line,AUC,IC50 [µM]
"MDA-MB-361 (breast, adherent, top dose 10 µM)",0.91,> 10
"MDA-MB-415 (breast, adherent, top dose 10 µM)",0.941,> 10
"MDA-MB-436 (breast, adherent, top dose 10 µM)",0.766,4.63
"MDA-MB-453 (breast, adherent, top dose 10 µM)",0.98,> 10
"MDA-MB-468 (breast, adherent, top dose 10 µM)",0.835,6.25
"MDST8 (large intestine, adherent, top dose 10 µM)",0.894,> 10
"ME-1 (acute myeloid leukaemia, suspension, top dose 10 µM)",0.969,> 10
"MEG-01 (chronic myeloid leukaemia, suspension, top dose 10 µM)",0.963,> 10
"MEL-HO (melanoma, adherent, top dose 10 µM)",0.85,7.74
"MEL-JUSO (melanoma, adherent, top dose 10 µM)",0.879,> 10
"MES-SA (uterus, adherent, top dose 10 µM)",0.872,7.16
"MFE-280 (endometrium, adherent, top dose 10 µM)",0.981,> 10
"MFE-296 (endometrium, adherent, top dose 10 µM)",0.911,> 10
"MFH-ino (soft tissue, adherent, top dose 10 µM)",0.784,5.06
"MFM-223 (breast, adherent, top dose 10 µM)",0.949,> 10
"MG-63 (osteosarcoma, adherent, top dose 10 µM)",0.883,> 10
"MHH-CALL-2 (B-cell leukaemia, suspension, top dose 10 µM)",0.931,8.87
"MHH-ES-1 (Ewing sarcoma, adherent, top dose 10 µM)",0.702,2.3
"MHH-NB-11 (neuroblastoma, adherent, top dose 10 µM)",0.809,5.85
"MHH-PREB-1 (B-cell leukaemia, suspension, top dose 10 µM)",0.972,> 10

# The IC50 comes from the fitted curve, where viability falls to half of the control; a limit (>, <) means that the fit lies beyond the doses tested. For AUC the same curve is integrated over the 256-fold range of doses and scaled to a fraction: 1 means no effect, lower means more sensitive. The top dose, if marked as inferred, was calculated from the reported fits.
